Data from US6916905B2, “Dmt-Tic di-and tri-peptidic derivatives and related compositions and methods of use” (The United States of America as represented by the …, priority 2000, dated 2005).
“Also recorded” adds a separate entry of the source. Like-named read-outs stand apart in the source and are kept apart here. For some of these results: Not every detail of the peptide structures is certain; ends, links or a residue may be inferred. For some of these results: For at least one compound, name, drawing or mass did not settle the structure. Some results were stated once for a whole list of compounds, not compound by compound. Non-standard residues stand in square brackets, D forms with d. Residues, ends and D or L forms follow the SMILES beside them. *: point of attachment. Dmt = Cc1cc(O)cc(C)c1C[C@H](N)C(=O)O; Tic = O=C(O)[C@@H]1Cc2ccccc2CN1; NHBn = c1ccc(CN*)cc1; NHPh = c1ccc(N*)cc1

Experiments:
μ receptors [1] = molecular target: T1, μ receptors (Cavia porcellus, UniProt P97266); assay: GPI functional pharmacological bioassay (Example 75); design: species or system guinea pig
T1 sequence (P97266 whole entry, looked up): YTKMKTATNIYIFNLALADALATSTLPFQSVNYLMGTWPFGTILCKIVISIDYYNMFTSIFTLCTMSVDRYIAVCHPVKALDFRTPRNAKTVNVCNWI
Experimental: The in vitro pharmacological assays used a single MVD for δ receptors and a 2- to 3-cm segment of GPI for μ receptors with each suspended in 20 ml organ baths containing balanced salt solutions in a physiological buffer (Salvadori et al., Mol. Med., 1: 678-689 (1995)). […] Data were obtained from 4 independent assays and tissue samples. Agonism is expressed as the IC50 (nM) value and antagonism as pA2 (Labarre et al., Eur. J. Pharm., 406: R1-R3 92000)).

μ receptors [2] = molecular target: T2, μ receptors (Rattus norvegicus, UniProt P33535); assay: Radio-receptor competition assay, rat brain synaptosomes, [3H]DAGO (Example 74); format: binding
T2 construct: assayed with a rat brain synaptosomal preparation (P2); from tissue; host or cells: rat brain P2 synaptosomes
T2 sequence (P33535 whole entry): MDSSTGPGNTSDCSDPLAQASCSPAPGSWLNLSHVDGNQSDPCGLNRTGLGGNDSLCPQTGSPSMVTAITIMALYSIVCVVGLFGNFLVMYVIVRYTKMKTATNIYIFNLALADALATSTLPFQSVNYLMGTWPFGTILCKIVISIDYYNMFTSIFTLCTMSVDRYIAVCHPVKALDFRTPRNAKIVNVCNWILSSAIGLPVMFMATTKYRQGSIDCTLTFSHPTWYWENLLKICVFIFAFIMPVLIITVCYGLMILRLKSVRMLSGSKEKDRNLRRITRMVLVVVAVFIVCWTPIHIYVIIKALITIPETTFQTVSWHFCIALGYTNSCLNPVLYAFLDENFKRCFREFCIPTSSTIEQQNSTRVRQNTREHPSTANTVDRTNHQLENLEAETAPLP
Experimental: (§1) After 120 min incubation at room temperature (23-24° C.), the samples were rapidly filtered through Whatman GF/C glass fiber filers and washed three times with 2 ml ice-cold 0.05 M Tris, pH 7.4-7.5, containing 0.1% BSA. Presoaking filters in 0.1% polyethylenimine is only required in assays with peptides carrying an overall positive charge, such as dynorphin or nociceptin (Guerrini et al., J. Med. Chem., 40: 1789-1793 (1997)). Non-specific binding was determined using 2 μM unlabeled DPDPE or DAGO for δ or μ assays, respectively.

δ-opioid receptors = molecular target: T3, δ-opioid receptors (Rattus norvegicus, UniProt P33533); assay: Rat brain synaptosome (P2) binding, δ antagonist [3H]N,N(CH3)2-Dmt-Tic-OH (Example 47); details: read-out: Kiδ(nM) [^3H]N,N(CH3)2-Dmt-Tic-OH; rat brain synaptosomes (P2); δ antagonist radioligand; mean ± SEM, n in parentheses
T3 construct: assayed with a rat brain synaptosomal preparation (P2); from tissue; host or cells: rat brain P2 synaptosomes
T3 sequence (P33533 whole entry): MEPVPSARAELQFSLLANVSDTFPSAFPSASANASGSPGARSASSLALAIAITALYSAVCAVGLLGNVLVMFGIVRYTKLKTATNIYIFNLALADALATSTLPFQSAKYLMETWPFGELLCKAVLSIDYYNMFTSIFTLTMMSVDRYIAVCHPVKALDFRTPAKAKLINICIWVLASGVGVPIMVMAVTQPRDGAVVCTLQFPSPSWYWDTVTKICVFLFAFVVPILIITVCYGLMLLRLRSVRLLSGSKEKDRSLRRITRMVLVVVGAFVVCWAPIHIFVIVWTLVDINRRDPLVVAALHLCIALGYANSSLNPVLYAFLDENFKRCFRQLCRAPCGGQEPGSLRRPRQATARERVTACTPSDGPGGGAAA

δ receptors [3] = molecular target: T4, δ receptors (Mus musculus, UniProt P32300); details: read-out: MVD Ke; δ antagonism; Ke = antilog of pA2
T4 sequence (P32300 whole entry): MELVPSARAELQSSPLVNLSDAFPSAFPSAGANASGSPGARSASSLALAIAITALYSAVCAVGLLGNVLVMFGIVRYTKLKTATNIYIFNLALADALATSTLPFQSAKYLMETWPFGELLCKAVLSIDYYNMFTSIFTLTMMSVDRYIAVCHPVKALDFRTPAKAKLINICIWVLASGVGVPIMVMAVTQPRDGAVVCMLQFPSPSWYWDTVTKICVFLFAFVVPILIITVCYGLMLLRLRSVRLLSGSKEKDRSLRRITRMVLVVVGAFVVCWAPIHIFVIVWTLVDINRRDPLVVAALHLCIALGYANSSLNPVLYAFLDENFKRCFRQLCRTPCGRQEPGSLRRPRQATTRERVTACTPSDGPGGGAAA
Experimental: (§2) The functional bioactivity of the present inventive compounds was assessed using standard functional bioassays of δ and μ activity in MVD and GPI (Salvadori et al. (1995), supra; and Salvadori et al., J. Med. Chem. 36: 3748-3756 (1993)). […] Dose-response curves were obtained (Salvadori et al. (1995), supra) for both tissues. […] Data were derived from at least four independent tissue samples and dose-response curves from which the pA2 values were determined (Salvadori et al. (1997), supra) according to Arunlakshana and Schild (Br. J. Pharmacol. 14: 48-58 (1959)).

μ receptors [4] = molecular target: T1, μ receptors
δ receptors [5] = molecular target: T4, δ receptors; assay: MVD functional pharmacological bioassay (Example 75); design: A single MVD was suspended in 4 ml modified Kreb's solution; from tissue; host or cells: mouse vas deferens
δ receptors [6] = molecular target: T5, δ receptors (Rattus norvegicus, UniProt P33533); assay: Radio-receptor competition assay, rat brain synaptosomes, [3H]DPDPE (Example 74); format: binding; details: selectivity Kiμ/Kiδ
T5 construct: assayed with a rat brain synaptosomal preparation (P2); from tissue; host or cells: rat brain P2 synaptosomes
T5 sequence (P33533 whole entry): as the sequence (P33533 whole entry) above
Experimental: as §1

μ receptors [7] = molecular target: T1, μ receptors; assay: Guinea pig ileum (GPI) functional bioassay (Example 48); details: read-out: GPI ED50; μ agonism
Experimental: as §2

μ-opioid receptors = molecular target: T6, μ-opioid receptors (Rattus norvegicus, UniProt P33535); assay: Rat brain synaptosome (P2) binding, [3H]DAGO (Example 47); details: read-out: Kiμ (nM) [^3H]DAGO; rat brain synaptosomes (P2); mean ± SEM, n in parentheses
T6 construct: assayed with a rat brain synaptosomal preparation (P2); from tissue; host or cells: rat brain P2 synaptosomes
T6 sequence (P33535 whole entry): as the sequence (P33535 whole entry) above

[8] = μ agonism; cells marked a/b: Salvadori et al. (1995), (1997); read-out: GPI ED50; cited from earlier work

SMILES: Cc1cc(O)cc(C)c1C[C@H](N)C(=O)N1Cc2ccccc2C[C@H]1C(=O)NCC(=O)NCc1nc2ccccc2[nH]1 [Compound 26, H-Dmt-Tic-Gly-NH—CH2-Bid]
- Functional Bioactivity GPI (pEC50) (μ receptors [1]; μ agonism): 6.45

SMILES: Cc1cc(O)cc(C)c1C[C@H](N)C(=O)N1Cc2ccccc2C[C@H]1C(=O)NCC(=O)Nc1ccccc1 [Compound 27, H-Dmt-Tic-Gly-NH-Ph] (H-[Dmt]-[Tic]-Gly-NHPh)
- increase in μ receptor affinity relative to H-Dmt-Tic-NH2 (μ receptors [2]): over 1,700 fold

SMILES: Cc1cc(O)cc(C)c1C[C@H](N)C(=O)N1Cc2ccccc2C[C@H]1C(N)=O [H-Dmt-Tic-NH2, reference compound] (H-[Dmt]-[Tic]-NH2)
- Ki (δ-opioid receptors): 2.13 ± 0.12 nM
- Kb (δ receptors [3]): 0.042 µM
- EC50 (μ receptors [4]; [8]): > 10 µM

SMILES: Cc1cc(O)cc(C)c1C[C@H](N)C(=O)N1Cc2ccccc2C[C@H]1C(=O)O [H-Dmt-Tic-OH, reference compound] (H-[Dmt]-[Tic]-OH)
- EC50 (μ receptors [4]; [8]): > 10 µM

SMILES: Cc1cc(O)cc(C)c1C[C@H](N)C(=O)N1Cc2ccccc2C[C@H]1C(=O)NCC(=O)NCc1ccccc1 [Compound 28, H-Dmt-Tic-Gly-NH-Bzl] (H-[Dmt]-[Tic]-Gly-NHBn)
- δ activity on MVD, in words (δ receptors [5]): potent δ antagonist activity
- μ activity on GPI, in words (μ receptors [1]): remarkably high μ agonism; also recorded: about one-fourth of that for dermorphin
- increase in μ receptor affinity relative to H-Dmt-Tic-NH2 (μ receptors [2]): over 1,700 fold
- μ/δ (δ receptors [6]): 5.3

SMILES: Cc1cc(O)cc(C)c1C[C@@H](C(=O)N1Cc2ccccc2C[C@H]1C(=O)O)n1cccc1 [Compound 5, [des-NH2-α-pyrrole-1-yl]-Dmt-Tic-OH]
- EC50 (μ receptors [7]): > 10 µM

SMILES: Cc1cc(O)cc(C)c1C[C@H](N)C(=O)N1Cc2ccccc2C[C@H]1C(=O)N[C@@H](C)C(=O)O [H-Dmt-Tic-Ala-OH, reference compound] (H-[Dmt]-[Tic]-Ala-OH)
- EC50 (μ receptors [4]; read-out: GPI ED50; μ agonism; cells marked a/b: Salvadori et al. (1995), (1997); cited from earlier work): > 10 µM
- Ki (μ-opioid receptors): 813 ± 68 nM
